Data as given in the supplement of paper PMC3334620.
The full ranking holds about 33,000 sequences; the median of “E-score (-0.5 to 0.5)” is about -0.041, and the highest 2% start at about 0.37. This is one part of the list.

What follows are sequences tested against T1, Ecm22 (UniProt Q05958) (assay: PBM E-score (8-mer binding enrichment) (E-score (-0.5 to 0.5)); higher = stronger / more preferred TF binding; most listed sequences are background and not binding sites). Conditions: protein concentration: 200 nM; construct: GST-full length.
T1 sequence: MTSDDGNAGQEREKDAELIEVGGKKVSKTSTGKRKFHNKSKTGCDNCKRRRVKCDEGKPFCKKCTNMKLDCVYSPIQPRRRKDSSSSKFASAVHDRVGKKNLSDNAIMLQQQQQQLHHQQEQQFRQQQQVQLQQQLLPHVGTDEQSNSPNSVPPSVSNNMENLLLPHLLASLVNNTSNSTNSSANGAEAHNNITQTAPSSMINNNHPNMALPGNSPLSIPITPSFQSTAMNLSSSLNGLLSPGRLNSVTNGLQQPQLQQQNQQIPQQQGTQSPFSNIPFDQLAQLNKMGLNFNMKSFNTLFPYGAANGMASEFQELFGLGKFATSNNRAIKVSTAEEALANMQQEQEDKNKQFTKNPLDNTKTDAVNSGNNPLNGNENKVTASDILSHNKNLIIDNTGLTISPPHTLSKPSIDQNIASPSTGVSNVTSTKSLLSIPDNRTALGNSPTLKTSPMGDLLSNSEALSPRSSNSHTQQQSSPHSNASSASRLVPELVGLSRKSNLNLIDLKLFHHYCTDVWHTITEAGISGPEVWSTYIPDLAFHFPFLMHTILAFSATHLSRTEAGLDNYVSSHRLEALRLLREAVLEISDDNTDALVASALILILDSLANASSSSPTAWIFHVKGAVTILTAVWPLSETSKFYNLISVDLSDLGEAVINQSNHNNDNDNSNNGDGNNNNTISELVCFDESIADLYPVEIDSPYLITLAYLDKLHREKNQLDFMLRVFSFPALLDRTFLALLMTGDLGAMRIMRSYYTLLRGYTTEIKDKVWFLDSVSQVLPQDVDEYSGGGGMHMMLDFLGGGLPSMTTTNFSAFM
Description: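 Universal 'all 10-mer' protein binding microarrays (Agilent AMADID 015681) probed with GST-tagged S. cerevisiae TFs (full-length or DBD) made by in vitro transcription/translation (PURExpress), about 100-200 nM. Bound TF was detected with fluorescent anti-GST. Each ungapped 8-mer (which stands for itself and its reverse complement) is scored by the PBM enrichment score (E-score), a modified Wilcoxon-Mann-Whitney statistic from -0.5 to +0.5, computed with the Universal PBM Analysis Suite. Scale: above 0.35 generally sequence-specific binding.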

Row | Sequence | PBM E-score
1 | CACACGCG | 0.0349
2 | CCTTCAGA | -0.134
3 | CCGGACGA | -0.111
4 | ATAACAGA | -0.0651
5 | AACAAAAC | -0.0234
6 | ACCGACTG | 0.142
7 | CACCGGTC | -0.174
8 | AGGGTTGA | -0.0283
9 | AAATCCTT | 0.0766
10 | CAGTAGGA | -0.189
11 | TACCGGCA | 0.0162
12 | GACACCTA | -0.144
13 | GTTCATAA | 0.0587
14 | GTCTGTTA | -0.0155
15 | AATCTACC | -0.00111
16 | TGCGTACA | 0.283
17 | CGCTGAGA | -0.134
18 | TACAACAA | 0.102
19 | ACTGTCCG | 0.165
20 | GCCAGAAA | -0.0807
21 | AACCTTAC | 0.14
22 | CTGTGGTA | 0.0208

Row | Sequence | PBM E-score
23 | ATTGATAG | -0.106
24 | AGGGCGGC | -0.163
25 | ACACTTCT | -0.0502
26 | CAGCAGTC | -0.0365
27 | CCATATAC | 0.209
28 | ATATAACA | 0.0563
29 | CTATGAAA | -0.11
30 | ATGCGTTG | 0.0063
31 | ACTCTCTC | -0.0772
32 | GACTTAAA | 0.00457
33 | ACTGTTTG | -0.145
34 | AGTATACA | 0.0981
35 | ACTTTGGA | -0.0557
36 | CTGGGAAC | 0.132
37 | GGTTTAAC | 0.0725
38 | GCATCCAC | -0.0987
39 | GAGTGCGA | 0.116
40 | CAACATAC | 0.196
41 | ACTTCACA | -0.0174
42 | CCCAACGC | -0.0914
43 | CTTAAGCC | -0.196
44 | ACAAGAAT | -0.204

Row | Sequence | PBM E-score
45 | CAGAGCAG | -0.125
46 | ACGGCCCG | 0.208
47 | AATTGTAC | 0.264
48 | CTCCTCGA | 0.00861
49 | ACGGACAC | 0.135
50 | CAACACGG | 0.00131
51 | CTTCGCGC | 0.184
52 | CCAACTAC | -0.0395
53 | CCGCTCAG | -0.0555
54 | TATTAATA | 0.11
55 | CCATCGAG | 0.142
56 | AAGACTAT | -0.0439
57 | AAGATTCA | -0.154
58 | GACACAGA | -0.127
59 | AAGGGACT | -0.3
60 | CAGCCTAA | -0.165
61 | CGATCCTC | 0.0953
62 | TCCATAAA | -0.108
63 | CCCTATAA | -0.227
64 | ACGTACTC | 0.288
65 | GTCTCCAC | -0.154
66 | AAGGCAGA | -0.237

Row | Sequence | PBM E-score
67 | CTCTGGTC | -0.174
68 | CAGCGATA | 0.0374
69 | GATCCAGA | 0.0677
70 | AGATAATC | -0.037
71 | CCACGCCG | -0.0766
72 | AATGGTTA | -0.104
73 | ATCGAGAC | 0.188
74 | ATCGTGCA | 0.139
75 | AGCCATAT | -0.097
76 | CTGGACTA | -0.319
77 | CAGGTTCA | -0.227
78 | CCAAGGAG | -0.278
79 | GCGATCTA | 0.173
80 | CGTGTGAA | 0.135
81 | GTCGCTAA | 0.289
82 | ATATTATG | 0.137
83 | ATATGCAA | -0.0145
84 | CTGGTCCC | -0.318
85 | CCAACGAG | 0.093
86 | AACTATTA | 0.0444
